In PubChem BioAssay AID588591 (National Center for Advancing Translational Sciences (NCATS), 2011):
The campaign covered roughly 390,000 compounds. About 4,700 (1.2%) were called active. The shares of active, inactive and inconclusive entries below differ from those in the screen. Calls come from the whole dose curve; as a rule, active = well fitted inhibition curve with a large enough effect; inconclusive = small, poorly fitted or top-dose-only effect, or another doubt; inactive = no such curve, though single readings can be large or run the other way. A potency beside an inconclusive call is a rough fit, not a confirmed value.

molecular target: DNA polymerase eta (Homo sapiens) (UniProt Q9Y253); experiment: qHTS for Inhibitors of Polymerase Eta; conditions: recombinant Pol eta, fluorescent DNA replication assay; series mostly up to 114 µM
Sequence of UniProt Q9Y253 (Q9Y253 whole entry, looked up): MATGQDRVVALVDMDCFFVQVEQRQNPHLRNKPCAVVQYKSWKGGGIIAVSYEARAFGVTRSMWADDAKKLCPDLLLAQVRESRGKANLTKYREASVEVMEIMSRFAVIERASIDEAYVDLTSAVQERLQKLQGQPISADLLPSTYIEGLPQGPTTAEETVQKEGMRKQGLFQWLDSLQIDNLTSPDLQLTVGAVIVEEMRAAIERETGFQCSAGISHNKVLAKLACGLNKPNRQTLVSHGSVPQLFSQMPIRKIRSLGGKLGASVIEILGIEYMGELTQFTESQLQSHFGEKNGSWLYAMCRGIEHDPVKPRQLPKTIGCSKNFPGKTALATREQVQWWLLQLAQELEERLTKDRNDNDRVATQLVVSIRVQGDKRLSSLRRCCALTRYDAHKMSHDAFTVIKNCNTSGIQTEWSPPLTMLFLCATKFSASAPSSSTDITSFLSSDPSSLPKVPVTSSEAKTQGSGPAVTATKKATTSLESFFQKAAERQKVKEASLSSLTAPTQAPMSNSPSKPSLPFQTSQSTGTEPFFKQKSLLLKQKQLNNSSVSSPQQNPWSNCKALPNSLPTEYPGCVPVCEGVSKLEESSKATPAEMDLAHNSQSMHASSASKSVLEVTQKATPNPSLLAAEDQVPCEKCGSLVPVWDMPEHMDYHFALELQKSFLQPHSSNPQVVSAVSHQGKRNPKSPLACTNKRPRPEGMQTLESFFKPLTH
Method in brief: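 Fluorescent replication assay: 50 nM final substrate added after a 15 min room-temperature compound preincubation with 10 nM enzyme. Signal taken at 0 min and again at 10 min.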
Potency is the fitted concentration of half-maximal effect; tags give direction and shape of the fitted curve.

Row | Structure (SMILES) | Potency
1 | N#C/C(=C\c1ccc(OC(=O)c2ccc(Br)s2)cc1)c1nc2ccccc2[nH]1 | active: 5.62 µM
2 | Cc1c(N)c(C(C)(C)C)cc(C(C)(C)C)c1[N+](=O)[O-] | inconclusive: 79.4 µM [inhibitor, partial curve, poor fit]
3 | CCN(CC(=O)NCc1cccs1)C(=O)COc1cccc(C(F)(F)F)c1 | inconclusive: 89.1 µM [inhibitor, single point]
4 | CCCc1cc(C(=O)Nc2cc(C)ccc2O)no1 | inactive
5 | C/C=C/C=C/C(=O)N1CC2(CC(c3cccc(NC(=O)CCCCC)c3)=NO2)C[C@H]1C(N)=O (stereo partly drawn) | inconclusive: 28.2 µM [inhibitor, single point]
6 | COC(=O)C(Cc1c[nH]c2ccccc12)NC(=O)c1cc(-c2ccc(OC)c(OC)c2)oc1C (stereo not drawn) | inconclusive: 79.4 µM [inhibitor, partial curve, poor fit]
7 | Cc1ccc(NC(=O)NNC(=O)c2cc3ccccc3cc2O)cc1 | inactive
8 | CCCCSCCCNC(=O)c1cc(-c2cccnc2)nc2ccc(S(=O)(=O)N3CCC(C)CC3)cc12 | inactive
9 | COc1cc(C(=O)NC(=S)Nc2ccc(Cl)c(C(=O)O)c2)cc(OC)c1OC | inactive
10 | CCCCCCNc1ncnc2c1sc1nc(N3CCOCC3)c3c(c12)CCCC3 | inactive
11 | CCOC(=O)c1c(NC(=O)c2ccc(S(=O)(=O)N(C)C)cc2)sc2c1CCN(C)C2 | inconclusive: 100 µM [inhibitor, partial curve, poor fit]
12 | CNc1nc(N/N=C/c2ccc([N+](=O)[O-])cc2)nc(Nc2ccccc2)n1 | inconclusive: 31.6 µM [inhibitor, partial curve, poor fit]
13 | CCC(C)NS(=O)(=O)c1ccc(OCC(=O)NCc2ccco2)cc1 (stereo not drawn) | inconclusive: 31.6 µM [inhibitor, single point]
14 | COc1ccc(N2Cc3cccc(C(=O)N4CCOCC4)c3C2=O)cc1 | inactive
15 | CC(=O)c1cc(-c2ccc(F)cc2)n(CCC(=O)NCc2ccc(C)cc2)c1C | inactive
16 | Cc1ccc(C(=O)NC2CCN(Cc3ccccc3)CC2)cc1S(=O)(=O)N1CCOCC1 | inconclusive: 39.8 µM [inhibitor, partial curve, poor fit]
17 | O=C(CCN1C(=O)/C(=C\c2cccs2)SC1=S)Nc1ccc(C(=O)O)cc1 | active: 56.2 µM
18 | COc1ccc(OC)c(NC(=O)c2sc3nc4c(cc3c2N)CCCCCC4)c1 | inconclusive: 89.1 µM [inhibitor, partial curve, poor fit]
19 | Nc1cc(C(=O)O)c(N)c2c1C(=O)c1ccccc1C2=O | active: 20 µM
20 | c1ccc(OCc2nn3c(-c4n[nH]c5c4CCC5)nnc3s2)cc1 | inconclusive: 14.1 µM [inhibitor, partial curve]
21 | CCOC(=O)c1ccccc1NC(=O)c1ccc2nccnc2c1 | active: 20 µM
22 | CC1(C)c2ccccc2N2CC(=O)N(CC(N)=O)C21C (stereo not drawn) | inconclusive: 89.1 µM [inhibitor, single point]
23 | Cc1ccc(N(CC(=O)N2CCN(c3cc(Cl)ccc3C)CC2)S(=O)(=O)c2c(C)noc2C)cc1 | inconclusive: 89.1 µM [inhibitor, partial curve, poor fit]

Row | Structure (SMILES) | Potency
24 | CCN(CC)CCOc1ccc2c(c1)C(=NNC(=O)c1ccccn1)c1cc(OCCN(CC)CC)ccc1-2 | active: 22.4 µM
25 | O=C(COC(=O)C1CCN(c2ccc(C(F)(F)F)cn2)CC1)Nc1ncc(Cl)cc1Cl | inconclusive: 22.4 µM [inhibitor, partial curve, poor fit]
26 | C[C@H](CO)N1C[C@H](C)[C@H](CN(C)C(=O)Nc2ccc(C(F)(F)F)cc2)Oc2c(NC(=O)c3ccncc3)cccc2C1=O | active: 89.1 µM
27 | CCOC(=O)N/N=C\C=C\c1ccco1 | active: 79.4 µM
28 | Cc1oc2c(c1C(=O)Nc1ccc(C(=O)O)cc1)CCCC2 | inconclusive: 20 µM [inhibitor, single point]
29 | CCCCC(=O)Nc1ccccc1C(=O)OCC(=O)c1ccc2c(c1)OCCO2 | inconclusive: 79.4 µM [inhibitor, single point]
30 | CCN(CC)c1ccc(S(=O)(=O)Nc2cc(Cl)ccc2Cl)cc1NC(=S)NC(=O)C1CCCC1 | inconclusive: 28.2 µM [inhibitor, single point]
31 | O=C(CCc1nc2ccccc2c(=O)[nH]1)N1CCCc2ccccc21 | active: 50.1 µM
32 | COc1ccc2oc(C(=O)OCC(=O)Nc3ccc(OC)c(S(N)(=O)=O)c3)c(C)c2c1 | inconclusive: 35.5 µM [inhibitor, partial curve, poor fit]
33 | COc1ccccc1N(CC(=O)NCc1ccc2c(c1)OCO2)C(=O)CCC(=O)Nc1nccs1 | inactive
34 | O=C(OCC(=O)N1CCCCCC1)c1cnc(Cl)c(Cl)c1 | inconclusive: 89.1 µM [inhibitor, single point]
35 | COc1ccc(NC(=S)NC(NC(=O)CCl)C(Cl)(Cl)Cl)c([N+](=O)[O-])c1 (stereo not drawn) | active: 50.1 µM
36 | C#CCOCCOCCOCCNc1nc(N2CCN(C(=O)[C@H](C(C)C)n3cc(CCO)nn3)CC2)nc(N2CCN(C(=O)[C@H]([C@@H](C)CC)n3cc(CCC(=O)O)nn3)CC2)n1 | inconclusive: 31.6 µM [inhibitor, partial curve, poor fit]
37 | N#Cc1c(N(CCO)CCO)nc(N)c2c(N)nc3c(c12)CC(=O)N3Cc1cccs1 | active: 39.8 µM
38 | O=C(Nc1cccc(N=Cc2cc(Cl)cc(Br)c2O)c1)c1ccco1 | inconclusive: 6.31 µM [inhibitor, full curve, poor fit]
39 | COc1cc(/C=N/NC(=O)c2ccc(O)cc2)ccc1OCC(=O)Nc1cccc([N+](=O)[O-])c1 | inconclusive: 12.6 µM [inhibitor, full curve, poor fit]
40 | COc1cccc(C(=O)O[C@@H]2[C@H](Cc3ccccc3)NS(=O)(=O)[C@H]3C[C@@H]4C=C[C@]23O4)c1 | inactive
41 | O=C(O)c1c2c(nc3ccc(S(=O)(=O)N4CCC(C(=O)NCc5ccccc5)CC4)cc13)CCCC2 | inactive
42 | N#Cc1c(N)n(-c2ccccc2N)c2nc3ccccc3nc12 | inconclusive: 7.94 µM [inhibitor, full curve, poor fit]
43 | O=C(CCc1ccccc1)NCc1ccc2c(c1)CCN2C(=O)c1ccc(Cl)cc1 | inactive
44 | C/C(=N\Nc1nc(-c2cc(C)ccc2C)cs1)c1cc2ccccc2oc1=O | inactive
45 | O=C(c1cc(Br)c(Br)s1)N1CCc2ccccc2C1 | inactive
46 | Cn1c(SCC(=O)N/N=C/c2ccc(O)c(O)c2)nc2ccccc21 | inconclusive: 31.6 µM [inhibitor, full curve]

Row | Structure (SMILES) | Potency
47 | COc1ccc(-n2c(=O)c3c(c4cc(OC)ccc4n3C)n(C)c2=O)cc1 | inactive
48 | COc1ccc(CNS(=O)(=O)c2cc(-c3cc(C)no3)ccc2C(C)C)cc1 | inconclusive: 15.8 µM [inhibitor, partial curve, poor fit]
49 | Cn1nc(-c2ccc(Cl)cc2)c2cc(C(=O)N3CCOCC3)sc21 | inconclusive: 35.5 µM [inhibitor, partial curve, poor fit]
50 | O=C(CCNC(=O)c1ccc(Br)cc1)Nc1ccc(S(=O)(=O)Nc2ncccn2)cc1 | inconclusive: 31.6 µM [inhibitor, single point]
51 | CCOC(=O)C(C)Sc1nc2c(c(=O)[nH]c(=O)n2C)n1C/C=C(/C)Cl (stereo not drawn) | inconclusive: 14.1 µM [inhibitor, full curve, poor fit]
52 | Cc1ccc(NC(=O)C2CCCN(S(=O)(=O)c3ccc(F)cc3)C2)cc1 (stereo not drawn) | inactive
53 | Cc1ccn2c(=O)nc(SCC(=O)NCc3ccco3)nc2c1 | inconclusive: 14.1 µM [inhibitor, full curve, poor fit]
54 | NC(=O)c1ccc(-n2nnnc2SCC(=O)c2ccc(O)c(O)c2)cc1 | active: 10 µM
55 | Cc1ccc(NC(=O)c2ccc([N+](=O)[O-])o2)cc1C | inactive
56 | CCCCOc1ccc(C(=O)Nc2onc3c2CCCC3)cc1 | inactive
57 | CCCCNC(=O)CCCCC(=O)N/N=C/c1ccccc1Cl | inconclusive: 10 µM [inhibitor, full curve, poor fit]
58 | Cc1ccccc1-c1cc(C(=O)N2CCCC2)c2ccccc2n1 | inconclusive: 15.8 µM [inhibitor, partial curve, poor fit]
59 | CCc1c(C#N)c(SCCC(=O)Nc2cccc(OC)c2)nc2c1C(=O)CC(C)(C)C2 | inconclusive: 35.5 µM [inhibitor, partial curve, poor fit]
60 | COC(=O)c1cc(NC(=O)c2ccc(C)cc2)c(=O)oc1C | inconclusive: 100 µM [inhibitor, partial curve, poor fit]
61 | CCCNC(=O)c1nn2cc(Br)cnc2c1Br | inconclusive: 31.6 µM [inhibitor, partial curve, poor fit]
62 | O=C(Nc1ccc2oc(=O)ccc2c1)c1ccc(-c2cccc(Cl)c2)o1 | inactive
63 | O=C1S/C(=C\C=C\c2ccco2)C(=O)N1c1ccc(O)cc1 | inconclusive: 11.2 µM [inhibitor, full curve, poor fit]
64 | CSC1=NSC2=NC(=O)/C(=C/c3coc4ccc(O)cc4c3=O)C(=N)N12 | active: 3.16 µM
65 | COc1ccc(OC)c2c(=O)cc(C(=O)O)[nH]c12 | inactive
66 | CCCOc1cccc(-c2nc3ccccc3c(=O)o2)c1 | inconclusive: 89.1 µM [inhibitor, partial curve, poor fit]
67 | CC(C)(C)NC(=O)CSc1nnc(SCC(=O)NC(C)(C)C)s1 | inactive
68 | S=C(N/N=C1\CCc2ccccc21)NC1CCCCC1 | inactive
